Here are results for 48 molecules from PubChem BioAssay AID1508623 (National Center for Advancing Translational Sciences (NCATS), 2021).

The campaign covered roughly 48,000 compounds. About 450 (0.94%) were called active. About 19% were inconclusive and are not listed. Calls come from the whole dose curve; as a rule, active = well fitted inhibition curve with a large enough effect; inconclusive = small, poorly fitted or top-dose-only effect; inactive = no such curve, though single readings can be large or run the other way. Some of the results follow.

The nature of the test: Primary qHTS for Identification of Small Molecule Inhibitors of Huntingtin Promoter Activity. Note: nearly all actives have a fitted effect of over 50% in size. Conditions: HEK293 HTT promoter firefly luciferase reporter (activity 0% = vehicle and -100% = no light), 24 h; series mostly up to 57.5 µM; activity change, negative = inhibition: at the top concentration. Put shortly: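 Firefly luciferase readout (Dual-Glo, 10 min RT) after 24 h, 37 °C compound exposure (final up to 57.5 uM) of HEK293 reporter cells cultured 24 h beforehand; PTC124 at 50 uM final as control inhibitor; activity scaled vehicle 0%, zero RLU -100%.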
A general note: Quantitative high-throughput screening tests each substance at several concentrations.
For the molecule `CC(C)(C)NC(=O)c1cnn2c(C(F)F)cc(-c3ccccc3)nc12`, the “activity change, negative = inhibition” value is inactive: -2.33%.
`CCN(C(=O)Cn1c(=O)oc2cc(Cl)ccc21)c1cccc(C(F)(F)F)c1`: the “activity change, negative = inhibition” value is inactive: -15.9%.
Next, `COc1ccc(/C=C/C(=O)Nc2nc3n(n2)C(c2ccccc2)C=C(c2ccccc2)N3)cc1` (stereo not drawn): inactive: -31.5%; `Cc1ccc(-c2cnc(NCc3ccc(C(F)(F)F)cc3)n2C)cc1`: inactive: -10.7%; `COCCCNC(=O)c1cc(-c2cccnc2)nc2ccc(S(=O)(=O)N3CCC(C)CC3)cc12`: inactive: -3.48%.
Next, `CN1C(=O)C2(c3ccccc31)N(c1cccc(F)c1)C(=O)CS2(=O)=O` (stereo not drawn): inactive: 19.8%; `COc1ccc(Cl)cc1NC(=O)c1c(NCc2sccc2C)sc2c1CCCC2`: inactive: -4.85%; `Clc1ccccc1CNc1nc2ccccc2c2nc(-c3cccnc3)nn12`: inactive: -3.58%.
Next, `O=C(Cn1nnc(-c2ccc(Cl)cc2)n1)NCc1ccc(F)cc1`: inactive: -10.9%; `COc1ccc(OC)c(CNS(=O)(=O)c2c(C(=O)N3CCCCCC3)c(C)n(C)c2C)c1`: inactive: 9.1%; `COc1ccccc1N1CCN(C(=O)CCNS(=O)(=O)c2ccc3c(c2)CCN3C(=O)C2CC2)CC1`: inactive: -19.2%.
`Cc1ccc(NC(=O)c2cnc(SCC(=O)Nc3cc(C)on3)n(C)c2=O)cc1`: the “activity change, negative = inhibition” value was inactive: -12.5%.
With `COc1ccc(Cl)cc1NC(=O)CSC1=Nc2ccccc2C2=NC(CC(=O)NCc3ccc4c(c3)OCO4)C(=O)N12` (stereo not drawn), the “activity change, negative = inhibition” value was inactive: -23.2%.
In the case of `Cc1ccc(CNC(=O)Cn2cc(S(=O)(=O)Cc3ccccc3F)c3ccccc32)cc1` it was inactive: -17.7%; in that of `C=CCc1ccccc1OCC(O)CN1CCN(c2ccccc2)CC1` (stereo not drawn), inactive: -2.82%.
Next, `COc1ccccc1C(=O)Nc1ccc2c(c1)nc(CN1CCCCC1)n2C`: inactive: -2.61%; `CCOC(=O)c1ccc(NC(=O)CC2C(=O)N(c3cccc(OC)c3)C(=O)N2Cc2ccc(OC)cc2)cc1` (stereo not drawn): inactive: -17.4%; `CC(C)c1cnc2c(c1SCC(=O)NCc1ccccc1)c(=O)n(C)c(=O)n2C`: inactive: -8.29%.
`CN(Cc1ccccc1)C(=O)CSc1nc2ccccc2n1Cc1ccccc1F`: the “activity change, negative = inhibition” value is inactive: -16.4%.
Next, `Cc1ccccc1NC(=O)CSc1nc(=O)n(CCN2CCOCC2)c2c1CCC2`: inactive: -9.74%; `Cc1sc2c(c1C)c(=O)n(-c1cccc(C(F)(F)F)c1)c(=O)n2Cc1ccc(F)cc1`: inactive: -16.3%; `Cc1ccc(-c2nc3ccc(Cl)cn3c2Nc2ccccc2C)s1`: inactive: 37.2%.
Next, `COc1ccccc1Cc1nc2ccccc2nc1SCC(=O)Nc1cccc(Cl)c1C`: inactive: -0.887%; `COC(=O)c1ccc(NC(=O)CCc2c(C)nc3c(c2C)c(=O)n(C)c(=O)n3C)cc1`: inactive: -9.5%; `COc1cc(NC(=O)CSC2=Nc3ccccc3N=C(c3ccc(F)cc3)C2)cc(OC)c1`: inactive: -5.33%.
In the case of `COc1ccc(CNC(=O)c2cnc3cc(C)ccn3c2=O)cc1` it was inactive: 1.43%; in that of `CCOCN(C(=O)CSc1nc2ccccc2[nH]1)c1c(C)cccc1CC`, inactive: -31.1%; in that of `CCCCN(CC)C(=O)Cn1nc(C)c2c(C)n(-c3ccccc3)nc2c1=O`, inactive: -13.8%.
Turning to `O=C(c1ccccc1)c1ccc2nc(Nc3ccccc3Cl)c3nncn3c2c1`, the “activity change, negative = inhibition” value is inactive: -15.2%.
Take `CCOC(=O)c1c(C)oc2nc(C)nc(NCc3cccc(OC)c3)c12`: the “activity change, negative = inhibition” value was inactive: -12.3%.
Next, `C[C@H](CS)C(=O)N1CCC[C@H]1C(=O)O`: inactive: 6.49%; `CCOC(=O)c1cc(OC(=O)c2ccc(OC)c(OC)c2)n(-c2ccccc2)n1`: inactive: 10.5%.
In the case of `COc1ccccc1CNC(=O)CCCn1c(=O)c2ccccc2n(Cc2ccccc2F)c1=O`, the “activity change, negative = inhibition” value is inactive: 6.47%.
Next, `Cc1ccc(N2CC(C(=O)Nc3ccc(Cl)cc3Cl)CC2=O)cc1` (stereo not drawn): inactive: -5.14%.
Next, `COc1ccccc1NC(=O)CCNS(=O)(=O)c1ccc2c(c1)CCCC(=O)N2`: inactive: -12.7%; `CN(Cc1cc(Br)cc(Br)c1N)C1CCCCC1`: “inactive”; `CCc1ccc(-c2csc(-c3cc4cc(Br)ccc4oc3=O)n2)cc1`: inactive: -13.2%.
Next, `COc1ccc(C(=O)Nc2nnc(S(=O)(=O)N3CCOCC3)s2)cc1`: inactive: -6.66%; `Cc1nn(C(C)C(=O)NCc2cccc(F)c2)c(=O)c2c1sc1ccccc12` (stereo not drawn): inactive: -3.44%.
`CCN(CC)C(=O)Cn1cc(SCC(=O)Nc2ccc(C)cc2)c2ccccc21`: the “activity change, negative = inhibition” value is inactive: -10.9%.
Consider `COc1ccc(C)cc1NC(=O)C(NS(=O)(=O)c1cccc2nsnc12)c1ccccc1` (stereo not drawn), for which the “activity change, negative = inhibition” value was inactive: -20.8%.
Next, `CCOC(=O)N1CCc2c(sc3c2c(=O)n(-c2ccc(Cl)cc2)c(=O)n3CC(=O)Nc2ccccc2)C1`: inactive: -28.4%; `CCn1c2ccc(F)cc2c2nnc(SCCN3CCCCC3)nc21`: inactive: 0.437%; `Cc1cccc(CNC(=O)C2CCN(c3nc4ccc(Cl)cc4[nH]3)CC2)c1`: inactive: -0.896%.
In the case of `Cn1cnc2c(F)c(Nc3ccc(Br)cc3Cl)c(C(=O)NOCCO)cc21` it was inactive: 2.46%; in that of `Cc1nc2c3ccccc3nc(NNC(=O)CCC(=O)N3CCN(c4ccccc4F)CC3)n2n1`, inactive: -51%.
With `COc1ccc(C2Nc3ccccc3-c3nnc(SC)nc3O2)cc1C` (stereo not drawn), the “activity change, negative = inhibition” value was inactive: -8.45%.
Next, `COc1cc(C2c3c(oc4ccc(C)cc4c3=O)C(=O)N2Cc2ccc(F)cc2)ccc1O` (stereo not drawn): inactive: -8.38%.
